Data as given in the supplement of paper PMC8728848.
This is one part of the list.

Key:
Assay in all cases: glycan array binding signal (z-score within array); higher = stronger binding
Details in all cases: glycan notation: IUPAC condensed, linker removed
[1] = molecular target: Man(a1-2)Man(a1-3)[Man(a1-2)Man(a1-6)]Man(a1-6)[Man(a1-2)Man(a1-2)Man(a1-3)]Man(b1-4)GlcNAc(b1-4)GlcNAc
How it was run: (§1)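 Columns mapping to the same glycan were averaged after glycan names were converted to IUPAC-condensed notation. The data come from 3228 arrays in the Consortium for Functional Glycomics database, limited to those with an available protein sequence. Binding is reported as a within-array Z-score averaged across arrays of one protein sequence and across linkers.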

[2] = molecular target: Man(a1-2)Man(a1-3)[Man(a1-6)]Man(a1-6)[Man(a1-2)Man(a1-3)]Man(b1-4)GlcNAc(b1-4)GlcNAc
How it was run: as §1

[3] = molecular target: Man(a1-2)Man(a1-6)[Man(a1-3)]Man(a1-6)[Man(a1-2)Man(a1-2)Man(a1-3)]Man
How it was run: as §1

[4] = molecular target: Man(a1-2)Man(a1-6)[Man(a1-3)]Man(a1-6)[Man(a1-2)Man(a1-2)Man(a1-3)]Man(b1-4)GlcNAc(b1-4)GlcNAc
How it was run: as §1

[5] = molecular target: Man(a1-3)[Man(a1-6)]Man
How it was run: as §1

[6] = molecular target: Man(a1-3)[Man(a1-6)]Man(a1-6)[Man(a1-2)Man(a1-3)]Man(b1-4)GlcNAc(b1-4)GlcNAc
How it was run: as §1

[7] = molecular target: Man(a1-3)[Man(a1-6)]Man(a1-6)[Man(a1-3)]Man
How it was run: as §1

[8] = molecular target: Man(a1-3)[Man(a1-6)]Man(a1-6)[Man(a1-3)]Man(b1-4)GlcNAc(b1-4)GlcNAc
How it was run: as §1

[9] = molecular target: Man(a1-3)[Man(a1-6)]Man(b1-4)GlcNAc(b1-4)GlcNAc
How it was run: as §1

[10] = molecular target: Man(a1-6)Man
How it was run: as §1

[11] = molecular target: Man(b1-4)GlcNAc
How it was run: as §1

[12] = molecular target: Neu5Ac(a2-3)Gal
How it was run: as §1

[13] = molecular target: Neu5Ac(a2-3)Gal(b1-3)GalNAc
How it was run: as §1

[14] = molecular target: Neu5Ac(a2-3)Gal(b1-3)GalNAc(b1-3)Gal(a1-4)Gal(b1-4)Glc
How it was run: as §1

[15] = molecular target: Neu5Ac(a2-3)Gal(b1-3)GalNAc(b1-4)[Neu5Ac(a2-3)]Gal(b1-4)Glc
How it was run: as §1

[16] = molecular target: Neu5Ac(a2-3)Gal(b1-3)GalNAc(b1-4)[Neu5Ac(a2-8)Neu5Ac(a2-3)]Gal(b1-4)Glc
How it was run: as §1

[17] = molecular target: Neu5Ac(a2-3)Gal(b1-3)GalNAc6S
How it was run: as §1

[18] = molecular target: Neu5Ac(a2-3)Gal(b1-3)GlcNAc
How it was run: as §1

[19] = molecular target: Neu5Ac(a2-3)Gal(b1-3)GlcNAc(b1-2)Man(a1-3)[Neu5Ac(a2-3)Gal(b1-3)GlcNAc(b1-2)Man(a1-6)]Man(b1-4)GlcNAc(b1-4)GlcNAc
How it was run: as §1

[20] = molecular target: Neu5Ac(a2-3)Gal(b1-3)GlcNAc(b1-3)Gal(b1-3)GlcNAc
How it was run: as §1

[21] = molecular target: Neu5Ac(a2-3)Gal(b1-3)GlcNAc(b1-3)Gal(b1-4)GlcNAc
How it was run: as §1

[22] = molecular target: Neu5Ac(a2-3)Gal(b1-3)GlcNAc(b1-3)GalNAc
How it was run: as §1

[23] = molecular target: Neu5Ac(a2-3)Gal(b1-3)GlcNAc6S
How it was run: as §1

[24] = molecular target: Neu5Ac(a2-3)Gal(b1-3)[Fuc(a1-4)]GlcNAc
How it was run: as §1

[25] = molecular target: Neu5Ac(a2-3)Gal(b1-3)[Fuc(a1-4)]GlcNAc(b1-3)Gal(b1-3)[Fuc(a1-4)]GlcNAc
How it was run: as §1

[26] = molecular target: Neu5Ac(a2-3)Gal(b1-3)[Fuc(a1-4)]GlcNAc(b1-3)Gal(b1-4)[Fuc(a1-3)]GlcNAc
How it was run: as §1

[27] = molecular target: Neu5Ac(a2-3)Gal(b1-3)[Neu5Ac(a2-3)Gal(b1-4)]GlcNAc
How it was run: as §1

[28] = molecular target: Neu5Ac(a2-3)Gal(b1-3)[Neu5Ac(a2-6)]GalNAc
How it was run: as §1

[29] = molecular target: Neu5Ac(a2-3)Gal(b1-4)Glc
How it was run: as §1

[30] = molecular target: Neu5Ac(a2-3)Gal(b1-4)GlcNAc
How it was run: as §1

[31] = molecular target: Neu5Ac(a2-3)Gal(b1-4)GlcNAc(b1-2)Man(a1-3)[GlcNAc(b1-2)Man(b1-4)GlcNAc(b1-2)Man(a1-6)]Man(b1-4)GlcNAc(b1-4)GlcNAc
How it was run: as §1

[32] = molecular target: Neu5Ac(a2-3)Gal(b1-4)GlcNAc(b1-2)Man(a1-3)[Neu5Ac(a2-6)Gal(b1-4)GlcNAc(b1-2)Man(a1-6)]Man(b1-4)GlcNAc(b1-4)GlcNAc
How it was run: as §1

[33] = molecular target: Neu5Ac(a2-3)Gal(b1-4)GlcNAc(b1-3)Gal
How it was run: as §1

[34] = molecular target: Neu5Ac(a2-3)Gal(b1-4)GlcNAc(b1-3)Gal(b1-3)GlcNAc
How it was run: as §1

[35] = molecular target: Neu5Ac(a2-3)Gal(b1-4)GlcNAc(b1-3)Gal(b1-4)GlcNAc
How it was run: as §1

[36] = molecular target: Neu5Ac(a2-3)Gal(b1-4)GlcNAc(b1-3)Gal(b1-4)GlcNAc(b1-3)Gal(b1-4)GlcNAc
How it was run: as §1

[37] = molecular target: Neu5Ac(a2-3)Gal(b1-4)GlcNAc(b1-3)Gal(b1-4)[Fuc(a1-3)]GlcNAc
How it was run: as §1

[38] = molecular target: Neu5Ac(a2-3)Gal(b1-4)GlcNAc(b1-3)GalNAc
How it was run: as §1

[39] = molecular target: Neu5Ac(a2-3)Gal(b1-4)GlcNAc(b1-6)[Gal(b1-3)]GalNAc
How it was run: as §1

[40] = molecular target: Neu5Ac(a2-3)Gal(b1-4)GlcNAc(b1-6)[Neu5Ac(a2-3)Gal(b1-3)]GalNAc
How it was run: as §1

[41] = molecular target: Neu5Ac(a2-3)Gal(b1-4)GlcNAc6S
How it was run: as §1

[42] = molecular target: Neu5Ac(a2-3)Gal(b1-4)[Fuc(a1-3)]GlcNAc
How it was run: as §1

[43] = molecular target: Neu5Ac(a2-3)Gal(b1-4)[Fuc(a1-3)]GlcNAc(b1-3)Gal
How it was run: as §1

[44] = molecular target: Neu5Ac(a2-3)Gal(b1-4)[Fuc(a1-3)]GlcNAc(b1-3)Gal(b1-4)GlcNAc
How it was run: as §1

[45] = molecular target: Neu5Ac(a2-3)Gal(b1-4)[Fuc(a1-3)]GlcNAc(b1-3)Gal(b1-4)[Fuc(a1-3)]GlcNAc(b1-3)Gal(b1-4)[Fuc(a1-3)]GlcNAc
How it was run: as §1

B1: Gal 7 (Canis lupus) (protein)
chain: MAGSSNVPHKTSLPEGIRVGTVMRIRGVVPNKAGRFYVNLLCGEAPGSEAALHFNPRLDESTVVFNTLEQGAWGREERGTGIPFQRGQPFDVLLIATDEGFKAVVGDSEYHHFRYRIPPARVRLLEVGGDLQLESVSVF
- glycan array binding signal (z-score) [1]: -0.209
- glycan array binding signal (z-score) [2]: -0.208
- glycan array binding signal (z-score) [3]: -0.202
- glycan array binding signal (z-score) [4]: -0.219
- glycan array binding signal (z-score) [5]: -0.216
- glycan array binding signal (z-score) [6]: -0.212
- glycan array binding signal (z-score) [7]: -0.217
- glycan array binding signal (z-score) [8]: -0.193
- glycan array binding signal (z-score) [9]: -0.217
- glycan array binding signal (z-score) [10]: -0.209
- glycan array binding signal (z-score) [11]: -0.213
- glycan array binding signal (z-score) [12]: -0.216
- glycan array binding signal (z-score) [13]: -0.213
- glycan array binding signal (z-score) [14]: -0.189
- glycan array binding signal (z-score) [15]: -0.215
- glycan array binding signal (z-score) [16]: -0.185
- glycan array binding signal (z-score) [17]: -0.218
- glycan array binding signal (z-score) [18]: -0.211
- glycan array binding signal (z-score) [19]: -0.21
- glycan array binding signal (z-score) [20]: -0.068
- glycan array binding signal (z-score) [21]: -0.206
- glycan array binding signal (z-score) [22]: -0.22
- glycan array binding signal (z-score) [23]: -0.214
- glycan array binding signal (z-score) [24]: -0.203
- glycan array binding signal (z-score) [25]: -0.195
- glycan array binding signal (z-score) [26]: -0.214
- glycan array binding signal (z-score) [27]: -0.203
- glycan array binding signal (z-score) [28]: -0.195
- glycan array binding signal (z-score) [29]: -0.204
- glycan array binding signal (z-score) [30]: -0.213
- glycan array binding signal (z-score) [31]: -0.195
- glycan array binding signal (z-score) [32]: -0.217
- glycan array binding signal (z-score) [33]: -0.173
- glycan array binding signal (z-score) [34]: -0.206
- glycan array binding signal (z-score) [35]: -0.219
- glycan array binding signal (z-score) [36]: 0.112
- glycan array binding signal (z-score) [37]: -0.198
- glycan array binding signal (z-score) [38]: -0.203
- glycan array binding signal (z-score) [39]: -0.213
- glycan array binding signal (z-score) [40]: -0.213
- glycan array binding signal (z-score) [41]: -0.207
- glycan array binding signal (z-score) [42]: -0.212
- glycan array binding signal (z-score) [43]: -0.197
- glycan array binding signal (z-score) [44]: -0.205
- glycan array binding signal (z-score) [45]: -0.216
